Here are results for 40 sequences from the supplement of paper PMC10338343.

± gives the standard deviation. The entries are a selection whose mix differs from that of the whole data set.
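Further: 1 nM active piRISC with 0.1 nM target library at 33 °C single turnover.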

This test relates to MIWI (PIWIL1) piRISC loaded with piRNA #1 (30 nt). Nature of the test: pre-steady-state target cleavage rate (min^-1); MIWI and MILI are mouse PIWI proteins and EfPiwi is from a freshwater sponge; tags in brackets are library labels; higher = faster piRNA-guided slicing of the target. The following applies: guide: piRNA #1 5'p-UGAGGUAGUAGGUUGUAUAGUAUCCAGAGG; auxiliary factor: 500 nM mouse GTSF1. In short, it runs like this: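 At 33 °C in HEPES–potassium acetate buffer, a transcribed, DNA-blocked target RNA library […] was exposed for 0–8 or 0–960 min to 1 nM active affinity-purified piRISC carrying a single synthetic guide, with or without 500 nM GTSF1 partner protein. Uncleaved targets were sequenced and normalised to depth and to weakly complementary targets. With three trials pooled and k3 capped at 0.0001 min^-1, a burst-and-steady-state fit produced the pre-steady-state cleavage rate.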
Consider CCUCUGGAUAGUAAACAACCUACUACCUCA, for which the “pre-steady-state target cleavage rate” value was found to be 0.207 ± 0.031. With GCUCUGGUUACUAUACAACCUACAACCUCA, the “pre-steady-state target cleavage rate” value came out at 1.33 ± 0.079. For GGAGACCUAUGAUAUGUACUCUACUACCUCA, the “pre-steady-state target cleavage rate” value is less than 0.0001.

For the sequence GGAGACCUUACUAGUACAACCUACUACCUCA, the “pre-steady-state target cleavage rate” value came out at 0.514 ± 0.075. To GGAGACGAUACUAUACUACCUACUUCCUCA belongs 0.379 ± 0.037. To GGAGACCUAACUUUACAACCUUCUACCUCA belongs 0.0831 ± 0.027; to GGAGAGGAUACUAUACAACCUAUUACCUCA, 1.06 ± 0.082. As to GGAGACCAUACUAUACAUCCUACUUCCUCA, the “pre-steady-state target cleavage rate” value was found to be 0.467 ± 0.047.

As for GGAGACCUUACUAUGACAACCUACUACCUCA, the “pre-steady-state target cleavage rate” value stood at 0.856 ± 0.1. On to GGAGACCUUUCUAUAGAACCUACUACCUCA, for which the “pre-steady-state target cleavage rate” value is 0.751 ± 0.074. To GGAGACCUAUGUAUACAAGCUACAACCUCA belongs 0.00496 ± 0.0015.

For the sequence GGAGACCUUACUAUACAACCUACUUGGUCA, the “pre-steady-state target cleavage rate” value is 0.0055 ± 0.0035. For GGAGACCUAUGAUAUGAUCCUACUACCACA, the “pre-steady-state target cleavage rate” value is less than 0.0001. Consider CCUCUGGAUACUAUACAACCUACUAGCCUCA, for which the “pre-steady-state target cleavage rate” value amounted to 1.5 ± 0.11. Take GGAGACGAUACUAUUCAACCUACUACGUCA: the “pre-steady-state target cleavage rate” value is 0.67 ± 0.06.

Regarding GGACAGGAUACUAUAGAACCUACUACCUCA, the “pre-steady-state target cleavage rate” value was 1.45 ± 0.083. Consider GGAGACGAUACUUACAACCUACUACCUCA, for which the “pre-steady-state target cleavage rate” value was found to be 0.769 ± 0.073. Regarding GGAGACGAUAGUAUACAACGUACUACCUCA, the “pre-steady-state target cleavage rate” value is 0.447 ± 0.051.

On to GGAGAGGAAACUAUACAACCAACUACCUCA, for which the “pre-steady-state target cleavage rate” value worked out at 0.103 ± 0.014. GGAGACCAUAGUAUACAACCUACUACCUGA: the “pre-steady-state target cleavage rate” value worked out at 0.325 ± 0.037.

Turning to GGACUGGAUAGUAUACAUCCUACUACCUCA, the “pre-steady-state target cleavage rate” value was 0.52 ± 0.077. As for GGUCUGGAUACUAUACAACCUAACUACCUCA, the “pre-steady-state target cleavage rate” value stood at 0.0183 ± 0.0029. To GGAGACCUUACUAUACAACCUAGCUACCUCA belongs 0.082 ± 0.012; to GGUCUGGAUACUAAAGAACCUACUACCUCA, 1.24 ± 0.098; to GGUGACGAUACUAUACAACCUACUACCUCA, 1.82 ± 0.098. In the case of GGAGACGAUACUUUACAACCUACUACGUCA, the “pre-steady-state target cleavage rate” value came to 0.497 ± 0.051. Take “GGAGACCUAUCUAUACAACCUACUACCUCC [g2:g20:cont:t1C]”: the “pre-steady-state target cleavage rate” value worked out at 0.753 ± 0.062.

Take GGAGACCUUACUAUACUACCUACUAGCUCA: the “pre-steady-state target cleavage rate” value came to 0.197 ± 0.028. Take GGACUGGAUACUAUACAACCUACUACCCUCA: the “pre-steady-state target cleavage rate” value was 0.625 ± 0.09. The same measure for GGAGACCUAUGAUAUGUUCCUACUACUCA: less than 0.0001; for GGACUGGUUACUAUACAACCUACUACCACA: 0.584 ± 0.071. Consider CCUCUGGAAAGUAUACAACCUACUACCUCA, for which the “pre-steady-state target cleavage rate” value was found to be 0.461 ± 0.027. Consider GGACUGGAUACUAUACAACCUACUAGCUCA, for which the “pre-steady-state target cleavage rate” value was determined as 0.0504 ± 0.011. To GCUCUGGAUUCUAUACAACCUACUACCUCA belongs 1.57 ± 0.11; to GGAGACCUUACUAUAGAACGUACUACCUCA, 0.241 ± 0.022; to GCUCUGGAUUCUAAACAACCUACUACCUCA, 0.502 ± 0.065. On to GGAGACGAUACAAUACAACGUACUACCUCA, for which the “pre-steady-state target cleavage rate” value stood at 0.37 ± 0.029. The same measure for GGAGACCUUACUAUACUACCUACUACCACA: 0.385 ± 0.051; for GGACUGGAUACUAAACAACCUACUACCUCA: 1.62 ± 0.12; for CCUCUGGAUACUAUACAACCUUCUUCCUCA: 0.333 ± 0.031.
